Measured values as given in PMC5481654, “Identification of the anti-mycobacterial functional properties of piperidinol derivatives” (British journal of pharmacology, 2017).

How the values were obtained:
M. smegmatis [1] = assay: Time kill studies; assay type: cell-based; details: 2× MBC
P. putida = assay: MIC by REMA; assay type: cell-based, Pseudomonas putida; details: at concentrations as high as 250 μg·mL^−1
M. smegmatis [2] = assay: MIC by resazurin reduction microplate assay (REMA); assay type: cell-based, M. smegmatis MC^2155; details: Mycolicibacterium smegmatis, M. smegmatis, Table 1, mean ± SEM, n = 5; read-out: MIC
E. coli = assay: MIC by REMA; assay type: cell-based, Escherichia coli; details: at concentrations as high as 250 μg·mL^−1
M. smegmatis [3] = assay: REMA checkerboard assay with isoniazid; assay type: cell-based; details: for interaction with isoniazid: checkerboard; for ΣFIC (fractional inhibitory index): combination with isoniazid, ≤0.5 synergy, ≥4 antagonism
M. smegmatis [4] = assay: Determination of the MBC; assay type: cell-based; details: for MBC: Mycolicibacterium smegmatis, M. smegmatis, lowest concentration with no CFUs; for bactericidal activity: actively growing M. smegmatis
human cell line U937 = details: cited from earlier work
[5] = test system: mouse macrophage cell line RAW 264.7; details: cited from earlier work
M. tuberculosis = test system: M. tuberculosis; set-up: method as in Jeney and Zsolnai, 1956; Abuhammad et al., 2012; details: ref Jeney and Zsolnai, 1956, Abuhammad et al., 2012, listed as compound 1; cited from earlier work
[6] = assay type: in vitro ADME; details: CD-1, mouse, microsomes, 1 μg·mL, pH 7.4
ovine red blood cells = assay: Agglutination assay; assay type: cell-based; details: any concentration tested up to 250 μg·mL^−1

Row | Structure (SMILES) | reduction in CFUs (M. smegmatis [1]; M. smegmatis, during the time kill period) | effect on the growth of P. putida (P. putida) | MIC (M. smegmatis [2]) [µg/mL] | effect on the growth of E. coli (E. coli) | interaction with isoniazid (M. smegmatis [3]) | ΣFIC (fractional inhibitory index) (M. smegmatis [3]) | time to apparently complete eradication of viable M. smegmatis (M. smegmatis [1]) [h] | time to two-log reduction in CFUs (M. smegmatis [1]; M. smegmatis) | MBC (M. smegmatis [4]) [µg/mL] | bactericidal activity (M. smegmatis [4]) | toxicity (human cell line U937) | toxicity [5] | MIC (M. tuberculosis) [µg/mL] | CLint [6] [μL·min^−1·mg^−1 protein] | agglutination of ovine red blood cells (ovine red blood cells)
1 | CO[C@H]1/C=C/O[C@@]2(C)Oc3c(C)c(O)c4c(O)c(c(/C=N/N5CCN(C)CC5)c(O)c4c3C2=O)NC(=O)/C(C)=C\C=C\[C@H](C)[C@H](O)[C@@H](C)[C@@H](O)[C@@H](C)[C@H](OC(C)=O)[C@@H]1C [Rifampicin, reference compound] | no reduction in CFUs |  |  |  |  |  |  |  |  |  |  |  |  |  | 
2 | CN(CCC(=O)c1ccccc1)CCC(=O)c1ccccc1 [Compound 2, 3,3′-(methylazanediyl)bis(1-phenylpropan-1-one)] |  | do not have any effect | 125 (≈ 423 µM) | do not have any effect | no antagonistic interaction | 3 | ≤ 5 | 3 h | 78 to 156 (≈ 264 to 528 µM) | bactericidal |  |  |  |  | 
3 | CN1CCC(O)(c2ccccc2)C(C(=O)c2ccccc2)C1 (stereo not drawn) [Compound 1] |  | do not have any effect | 62.5 (≈ 212 µM) | do not have any effect | no antagonistic interaction | 1.5 | ≤ 3 | 90 min | 312 (≈ 1060 µM) | bactericidal | low toxicity | low toxicity | < 5 | > 48 | No lysis or agglutination

≈ marks a conversion by molar mass, not a printed value.
